From PubChem BioAssay AID1477 (National Center for Advancing Translational Sciences (NCATS), 2009)
Screen size: about 230,000 compounds; fewer than 10 were called active. Inconclusive results, whose numbers are uncertain, are shown with a selection of clear calls. Calls follow the shape of the dose curve; as a rule, active = well fitted curve in the direction sought with a large enough effect; inconclusive = small, poorly fitted or top-dose-only effect, or effect the other way, or another doubt; inactive = no such curve, though single readings can be large or run the other way. Potencies of inconclusive entries are left out as doubtful fits.

Each molecule was assayed against Runt-related transcription factor 1 (Homo sapiens) + Core-binding factor subunit beta (Homo sapiens) (UniProt Q01196+Q13951) (assay: qHTS Assay for Compounds Blocking the Interaction Between CBF-beta and RUNX1 for the Treatment of Acute Myeloid Leukemia). Conditions: AlphaScreen CBFb-His/RUNX1-biotin binding, biochemical; activity, negative = inhibition: at 59.8 µM (top of the series) unless noted.
Outline: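 AlphaScreen proximity signal reports loss of binding between His-tagged CBF-beta and biotin-labelled RUNX1, each at 30 nM. Proteins are pre-associated for 20 minutes, compounds added for 15 minutes, then beads for 90 minutes, all at ambient temperature.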
For activity, negative = inhibition in this document: % of control where 0% means no effect.

Sequence of UniProt Q01196 (Q01196 whole entry, looked up): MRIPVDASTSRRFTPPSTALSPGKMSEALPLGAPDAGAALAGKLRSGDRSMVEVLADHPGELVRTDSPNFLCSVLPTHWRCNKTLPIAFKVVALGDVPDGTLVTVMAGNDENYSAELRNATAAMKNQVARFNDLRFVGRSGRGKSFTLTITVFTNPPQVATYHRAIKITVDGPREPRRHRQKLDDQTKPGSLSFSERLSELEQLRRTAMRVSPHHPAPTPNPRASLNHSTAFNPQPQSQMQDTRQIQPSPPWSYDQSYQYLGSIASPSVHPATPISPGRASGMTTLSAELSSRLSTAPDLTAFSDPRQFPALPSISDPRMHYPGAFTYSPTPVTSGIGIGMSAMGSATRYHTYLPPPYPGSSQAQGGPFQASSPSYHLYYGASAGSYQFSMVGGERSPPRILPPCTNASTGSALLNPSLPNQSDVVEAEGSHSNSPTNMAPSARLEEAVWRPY
Sequence of UniProt Q01196 (Q13951 whole entry, looked up): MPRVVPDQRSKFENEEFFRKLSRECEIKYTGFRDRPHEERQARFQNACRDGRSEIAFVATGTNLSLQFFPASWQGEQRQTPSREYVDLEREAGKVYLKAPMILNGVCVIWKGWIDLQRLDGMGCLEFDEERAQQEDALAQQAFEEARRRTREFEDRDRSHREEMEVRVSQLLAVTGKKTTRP

Compound | Potency | activity, negative = inhibition
c1ccc(OCCOCCN2CCN(C(c3ccccc3)c3ccccc3)CC2)cc1 | inactive | 
Cc1cc(C)c(C#N)c(SCCS(=O)(=O)c2ccc(Cl)cc2)n1 | inconclusive [activator, partial curve] | 
CCOC(=O)CSc1nc(C2CC2)cc(-c2ccc(F)cc2)c1C#N | inconclusive [activator, single point] | 
CC(C)=CCC/C(C)=C/CO/N=C1/C[C@@H](O)[C@@H](O)[C@@H]2[C@@H]3C(=O)N(C4CCCCC4)C(=O)[C@H]3CC[C@H]12 |  | inactive: 7.63% [at 13.1 µM]
O=C(N/N=C/c1cc([N+](=O)[O-])ccc1O)NC12CC3CC(CC(C3)C1)C2 | inconclusive [inhibitor, partial curve, poor fit] | 
CN(C)c1ccc(C2CC(c3cccc(NS(C)(=O)=O)c3)=NN2C(=O)c2ccccc2)cc1 (stereo not drawn) | inconclusive [inhibitor, single point] | 
O=C(NCCO)c1cccc2c1C(=O)c1ccccc1-2 | inactive | 
COc1cccc2c1OC[C@@H](CO)[C@H]2N(C)C(=O)Nc1ccccc1 | inactive | 
CCn1c(C)nc2cc(C(=O)N/N=C/c3cccc(O)c3O)ccc21 | inconclusive [inhibitor, partial curve] | 
c1cc2c3c(cccc3c1)C(N1CCOCC1)=N2 | inactive | 
COc1ccc(-c2cn(-c3ccc(C)cc3)c(=O)n2CC(=O)Nc2ccc(OC)cc2OC)cc1 | inconclusive [inhibitor, single point] | 
Cc1ccccc1NC(=O)/C(=C/c1ccccc1)c1ccccc1 | inactive | 
CO/N=C/c1ccc(N2CCN(C(=O)c3cccc(Cl)c3)CC2)c([N+](=O)[O-])c1 | inconclusive [inhibitor, single point] | 
O=c1[nH]c(=S)n(C2CC2)c(O)c1/C=N/Nc1ccccc1 | inconclusive [inhibitor, single point] | 
CN1CCN(C(=S)c2cn(Cc3ccc(Br)cc3)c3ccccc23)CC1 | inconclusive [inhibitor, single point] | 
CN=c1scc(-c2ccc([N+](=O)[O-])cc2)n1/N=C/c1ccco1 | inconclusive [inhibitor, single point] | 
COc1ccc(CNc2nc(NCc3ccc(OC)cc3)c3ncn(C4CCCCC4)c3n2)cc1 | inconclusive [inhibitor, single point] | 
CCOC(=O)c1cc2c(s1)-c1c(C)cccc1OC2 | inconclusive [activator, single point] | 
O=[N+]([O-])c1cc(S(=O)(=O)Nc2ccccc2)ccc1N1CCN(c2ccccc2)CC1 | inconclusive [inhibitor, partial curve] | 
COc1ccc(Cn2nnnc2CN2CCC(O)(c3ccccc3F)CC2)cc1 | inconclusive [inhibitor, single point] | 
COC(=O)[C@@H](c1ccccc1Cl)N1CCc2sccc2C1 | inconclusive [activator, partial curve] | 
CCCN(Cc1ccccc1)C(=S)Nc1cccc(C(F)(F)F)c1 | inconclusive [activator, single point] | 
O=C(Nc1sc2c(c1C(=O)c1ccc(Cl)cc1)CCCC2)c1cccnc1 | inconclusive [inhibitor, partial curve] | 

Compound | Potency | activity, negative = inhibition
Cc1cc2c(cc1C)-c1c(ssc1=Nc1ccc(S(N)(=O)=O)cc1)C(C)(C)N2 | inconclusive [inhibitor, partial curve] | 
Cc1ccc(OCc2ccc(C(=O)Nc3ccc(C(N)=O)cc3)o2)c([N+](=O)[O-])c1 | inconclusive [activator, single point] | 
O=C1C=C(Nc2ccccc2C(=O)O)c2ccccc2C1=O | inconclusive [inhibitor, single point] | 
CNC(=S)N/N=C(\C)c1ccc2c(c1)OCO2 | inactive | 
Nc1nc(/C(=C/CC(=O)O)C(=O)NC2C(=O)N3C(C(=O)O)=CCSC23)cs1 (stereo not drawn) | inactive | 
COc1cc(C(CCN2CCCC2)c2c(OC)cc(OC)c3c2OC(=O)CC3c2ccc(N(C)C)cc2)cc(OC)c1OC (stereo not drawn) | inconclusive [inhibitor, single point] | 
CCc1ccc(OCC(=O)NC(NC(=S)Nc2ccc(C)cc2C)C(Cl)(Cl)Cl)cc1 (stereo not drawn) | inactive | 
O=c1oc2c3c4c(cc2s1)CCCN4CCC3 | inconclusive [inhibitor, partial curve] | 
Cc1cc(C(=O)CSc2nc(N)cc(=O)[nH]2)c(C)n1Cc1ccco1 | inconclusive [inhibitor, partial curve] | 
COc1ccc(C(=O)c2cc([N+](=O)[O-])ccc2N2CCN(C)CC2)cc1 | inactive | 
COc1ccc(-c2cc(C(F)(F)F)n3ncc(C(=O)N(C)Cc4ccccc4)c3n2)cc1 | inconclusive [activator, single point] | 
COCc1nnc(NC(=O)CSc2ccccc2)s1 | inactive | 
Cc1cc2oc(=O)cc(-c3ccccc3)c2c(C)c1-c1cccc(N)c1 | inconclusive [inhibitor, single point] | 
CCOC(=O)c1ccccc1Nc1cc(C)nc2nc(C)nn12 | inactive | 
COc1ccc(/C(C#N)=C/c2ccccn2)cc1 | inactive | 
Cc1cc2nc(CS)[nH]c2cc1C | inactive | 
COc1ccc2c(c1)c1ccc3c(c1n2C)C(=O)C=CC3=O | inconclusive [inhibitor, partial curve] | 
O=c1c(OC2OC(CO)C(O)C(O)C2O)c(-c2ccc(O)c(O)c2)oc2cc(O)cc(O)c12 (stereo not drawn) | inconclusive [inhibitor, single point] | 
COC(=O)C1=C(C(=O)OC)[C@@H]2N(Cc3ccccc3)c3ccccc3[C@@]23C[C@@H](C(=O)OC)N(S(=O)(=O)c2cccs2)C3=N1 |  | inactive: -14.2% [at 13.1 µM]
COc1ccc(NC2=NC(=S)N(c3cccc(C)c3)C23CCCCC3)cc1 | inactive | 
O=C(CCCN1C(=O)/C(=C/c2cccc(Br)c2)SC1=S)Nc1cccnc1 | inconclusive [inhibitor, partial curve] | 
NC(=O)c1ccsc1N | inactive | 
O=C(/C=C\c1ccco1)c1ccc(NC(=O)c2ccco2)cc1 | inconclusive [inhibitor, single point] | 

Compound | Potency | activity, negative = inhibition
Cc1cc2ncn(C(=O)c3cc(-c4ccccc4)nc4ccccc34)c2cc1C | inconclusive [activator, single point] | 
Cc1ccc(Cn2cnc3c(nnn3Cc3ccc(Cl)cc3)c2=O)cc1 | inactive | 
CC(C)OCC1CO1 (stereo not drawn) | inactive | 
O=[N+]([O-])c1ccc(/C=C/C2=NN(c3ccccc3)C(c3ccco3)C2)cc1 (stereo not drawn) | inconclusive [inhibitor, single point] | 
O=C1OCCN1C(=O)[C@H]1[C@H](c2ccc(F)cc2)C(c2cccc(Cl)c2)=NN1c1ccccc1 | inconclusive [activator, partial curve] | 
CCOP(=O)(OCC)c1nc(/C=C/c2ccccc2)oc1NCc1ccccc1 | inconclusive [activator, single point] | 
S=c1[nH]nc(-c2cccnc2)n1/N=C/C=C/c1ccco1 | inconclusive [inhibitor, single point] | 
CC(/C=C1\SC(=S)N(NC(=O)c2ccncc2)C1=O)=C\c1ccccc1 | inconclusive [inhibitor, single point] | 
O=C1OCCN1C(=O)[C@H]1[C@H](c2ccc(Cl)cc2)C(c2ccccc2)=NN1c1ccccc1 | inconclusive [activator, partial curve] | 
Nn1c(-c2cccs2)nc2sc3c(c2c1=O)CCCC3 | inconclusive [activator, partial curve] | 
CC(=O)O[C@]1(C(C)=O)CC[C@@H]2[C@@H]3C=C(Cl)C4=CC(=O)[C@H]5C[C@@H]5[C@]4(C)[C@H]3CC[C@]21C | inactive | 
CCCCCC1=C2CNC(CCC)(C(=O)OC)C=C2C(C)C1=O (stereo not drawn) | inconclusive [activator, single point] | 
O=C(Nc1nccs1)c1cc(-c2ccncc2)nc2ccccc12 | inconclusive [inhibitor, partial curve] | 
Cc1ccc2nc(N3CCN(C(=O)c4cccs4)CC3)c(C#N)cc2c1 | inconclusive [activator, single point] | 
Cc1csc2ncc(C(=O)NCc3ccco3)c(=O)n12 | inconclusive [inhibitor, single point] | 
O=c1c2c3nc4ccccc4nc3n(/N=C/c3cccs3)c2ncn1-c1ccccc1 | inactive | 
N#Cc1cn(Cc2ccccc2)c2ccccc12 | inconclusive [activator, partial curve] | 
CN1C(=O)C(Cc2cccs2)C(=O)N(C)C1=O | inconclusive [inhibitor, single point] | 
CCCCCCCCCCCCCCCC(O)C(N)CO (stereo not drawn) | inconclusive [activator, single point] | 
CCOC(=O)Nc1ccc(C(=O)/C=C/c2ccccc2)cc1 | inactive | 
COC(=O)C(O)(CC(=O)Nc1cc(OC)c(OC)c(OC)c1)C(F)(F)F (stereo not drawn) | inconclusive [activator, full curve, poor fit] | 
O=C1c2ccccc2-c2ncnc3c(N4CCOCC4)cc(N4CCOCC4)c1c23 | inconclusive [inhibitor, partial curve] | 
